# According to PubChem BioAssay AID1347073 (National Center for Advancing Translational Sciences (NCATS), 2019):
# Among all 45,000 compounds or so, about 200 (0.44%) were called active. About 7% were inconclusive and are not listed. The call rests on the fitted dose curve; in most records, active means well fitted activation curve with a large enough effect; inconclusive means small, poorly fitted or top-dose-only effect; inactive means no such curve, though single readings can be large or run the other way. This is one part of the list.
# Assay: qHTS of TDP-43 Inhibitors: NCGC Sytravon Library Screen; further: 0% is about no effect; nearly all actives have a fitted effect of over 55% in size
# Settings: yeast TDP-43 toxicity rescue, BacTiter-Glo growth, 24 h; series mostly up to 46.1 µM; growth rescue (activation): at the top concentration
# Procedure, shortened: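 TDP-43-expressing yeast, pregrown in raffinose, seeded at OD600 0.02 in galactose medium with compound for 24 hr at 30 deg C. Growth read by BacTiter-Glo luminescence, so rescue of toxicity appears as activation.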
row,Compound,growth rescue (activation)
1,O=C1NCCN(Cc2ccc(Cl)c(F)c2)C1CC(=O)N1CCc2ccccc2C1 (stereo not drawn),inactive: -5.46%
2,Cc1cc(C)c2c(c1)c1nnc(SCCN3CCCCC3)nc1n2C,inactive: -7.62%
3,Cc1cc(C)cc(Oc2ccc(-c3nnc(-c4ccccc4)o3)cc2[N+](=O)[O-])c1,inactive: 9.91%
4,CCOC(=O)c1sc(NC(=O)CSc2nnnn2-c2ccc(C)c(C)c2)nc1C,inactive: -8.38%
5,COc1ccc(NC(=S)N(Cc2cccnc2)Cc2cc3cc(OC)c(OC)cc3[nH]c2=O)cc1,inactive: -4.03%
6,CSc1ccc(S(=O)(=O)N2CCC(C(=O)NCc3ccco3)CC2)cc1,inactive: 10.6%
7,O=C(OCc1cc2ccccc2[nH]c1=O)c1ccncc1,inactive: 18.6%
8,Cc1cc(C)c(S(=O)(=O)Nc2ccc(C(N)=O)cc2)c(C)c1,inactive: 11.7%
9,Clc1ccc(-c2ccc(C=Nc3ccc(N4CCOCC4)cc3)o2)c(Cl)c1,inactive: 2.02%
10,COc1ccc(C(=O)Nc2ccc(NC(=O)C3CCCCC3)nc2)cc1,inactive: 4.9%
11,Cc1cccc(NC(=S)N2CCC(NC(=O)c3cccc(F)c3)CC2)c1,inactive: 5.32%
12,COc1cccc(CNC(=O)Cn2ncc3c(=O)oc4ccccc4c32)c1,inactive: 9.61%
13,C=CCn1c(CNC(=O)c2ccco2)nnc1SCC(=O)c1ccc(OC)cc1,inactive: 7.54%
14,CCOc1ccc(NS(=O)(=O)c2ccc(NS(C)(=O)=O)cc2)cc1,inactive: -6.66%
15,Cc1ccc(-n2c(SCC(=O)NCCN3C(=O)CSC3=O)nnc2-c2ccccc2)cc1C,inactive: -1.65%
16,CN1CCN(c2ccc(CNC(=O)C3Cc4c(-c5ccc(Cl)cc5)ccnc4O3)cc2)CC1 (stereo not drawn),inactive: -10.8%
17,O=Cc1ccc(C(=O)OCC(=O)Nc2ccc(F)cc2F)cc1,inactive: 8.27%
18,COc1ccc(C2C(C(C)=O)=C(C)Nc3ncnn32)cc1[N+](=O)[O-] (stereo not drawn),inactive: -5.42%
19,CSc1nn(-c2ccc(C(=O)OCC(=O)NC(=O)NC(C)C)cc2)c(=S)s1,inactive: -6.24%
20,CCN(Cc1ccccc1)C(=O)COC(=O)CNS(=O)(=O)c1ccc(C)cc1,inactive: 25.2%
21,COc1ccc(-n2nc([N+](=O)[O-])c(=NCc3ccco3)n2O)cc1,inactive: 30.1%
22,CCN(C(=O)COC(=O)/C(C#N)=C/c1ccc(N(C)C)cc1)C1CCS(=O)(=O)C1 (stereo not drawn),inactive: 22%
23,Cc1ccc(S(=O)(=O)N2CCCCC2)c(C)c1NS(C)(=O)=O,inactive: 1.51%
24,COc1ccc(C(=O)Nc2nnc(Cc3ccccc3)s2)c(OC)c1,inactive: -4.82%
25,CCOC(=O)C1(CC2CC2)CCN(Cc2cn(C)c3ccccc23)CC1,inactive: 6.67%
26,O=C(CN1CCOCC1)NNc1c2ccccc2nc2ccccc12,inactive: 4.99%

row,Compound,growth rescue (activation)
1,CCc1c(C)sc(NC(=O)C2CC2)c1C(=O)OC(C)C,inactive: 5.37%
2,O=C(CSc1ccccc1F)NC(=O)c1ccccc1Br,inactive: 11.6%
3,CC(C)c1ccc(/C=N/NC(=O)c2ccccn2)cc1,inactive: 15.9%
4,COc1ccc(S(=O)(=O)Nc2ccc(S(=O)(=O)N(C)C)cc2)cc1[N+](=O)[O-],inactive: -21.7%
5,C=CCc1cccc2cc(C(=O)NNC(=O)c3ccncc3)c(=O)oc12,inactive: 2.64%
6,COc1ccc(C(OCC(O)CNCCc2ccc(S(N)(=O)=O)cc2)c2ccc(OC)cc2)cc1 (stereo not drawn),inactive: 16.7%
7,CCOc1ccc(C(=O)OCC(=O)N2CCOCC2)cc1OCC,inactive: 0.0355%
8,COc1ccc(S(=O)(=O)N2CCCCC2)cc1NC(=O)c1ccc2c(c1)OCO2,inactive: 10.7%
9,CC1(C)CC(=O)C2=C(C1)OC(N)=C(C#N)[C@@H]2c1ccccc1[N+](=O)[O-],inactive: 13.9%
10,Cn1c(=O)c2c(ncn2CC(=O)N/N=C/C(Br)=C/c2ccccc2)n(C)c1=O,inactive: 25.8%
11,CN(C)S(=O)(=O)c1cccc(NC(=O)COc2ccc(S(=O)(=O)N3CCOCC3)cc2Cl)c1,inactive: -2.6%
12,COCCNC(=O)/C(=C/c1ccccc1Cl)c1ccccc1,inactive: 0.805%
13,COc1cc(C(=O)NNC(=O)Nc2ccc([N+](=O)[O-])cc2)cc(OC)c1OC,inactive: 4.24%
14,[O-][n+]1c2c(nn1-c1ccc(Cl)c(Cl)c1)-c1nonc1CC2,inactive: 0.457%
15,O=C(CC12CC3CC(CC(C3)C1)C2)N/N=C/c1ccc([N+](=O)[O-])o1,inactive: 5.3%
16,Cc1ccccc1C(=O)Nc1ccnn1C1CCN(Cc2cnn(C(C)C)c2)CC1,inactive: -1.41%
17,O=Cc1ccc(OCc2cn3ccccc3n2)cc1,inactive: -8.21%
18,O=C(CCCN1C(=O)/C(=C/c2cccs2)SC1=S)Nc1cccc(C(=O)O)c1,inactive: -5.81%
19,CC(NC(=O)Cn1c(=O)oc2cc(S(=O)(=O)N3CCCCCC3)ccc21)c1ccccc1 (stereo not drawn),inactive: -1.29%
20,O=c1cc(-c2ccc3c(c2)OCCO3)oc2ccc(Cl)cc12,inactive: 18.7%
21,CC(=O)N(C)c1ccc(NC(=O)C(Sc2ccccc2)c2ccccc2)cc1 (stereo not drawn),inactive: 8.25%
22,CS(=O)(=O)c1cccc(NC(=O)C2CC2)c1,inactive: 3.45%
23,Cc1nn(-c2ccccc2)c(Cl)c1/C=N/NC(=O)c1cccc(S(=O)(=O)N2CCCC2)c1,inactive: -0.561%
24,CCOC(=O)C1=C(C)N=c2s/c(=C/c3cccc([N+](=O)[O-])c3O)c(=O)n2C1c1ccccc1 (stereo not drawn),inactive: -14.9%
25,O=C(c1cc(-c2ccc(F)cc2)nc2ccccc12)N1CCC1,inactive: 20%
26,Cc1nc(Nc2ccc(O)cc2)c2c3c(sc2n1)CCCC3,inactive: 15.3%

row,Compound,growth rescue (activation)
1,COc1cc(CNCCc2ccccc2)ccc1OCC(N)=O,inactive: -24.4%
2,CCN(CC)c1ccc2nc3ccccc3[n+](CC)c2c1,inactive: -54.2%
3,Cc1ccc2nccc(C(=O)N3CCCC(N4CCN(c5ccc(F)cc5)CC4)C3)c2c1 (stereo not drawn),inactive: -2.5%
4,COc1cccc(CN2CC(C(=O)NC3CCC3)CCC2=O)c1 (stereo not drawn),inactive: 1.21%
5,CCCc1nc2ccccc2n1C(=S)SC,inactive: 10.3%
6,CC1CCCN(C(=O)C2CCN(S(=O)(=O)c3cccc4nonc34)CC2)C1 (stereo not drawn),inactive: 14.5%
7,COc1ccc(CCNC(=O)C23CCC(C)(C(=O)C2Br)C3(C)C)cc1OC (stereo not drawn),inactive: -15.2%
8,Cc1ccc(C(=O)NNC(=O)CSc2nnc3ccccn23)cc1,inactive: 5.26%
9,COc1cc(NC(=O)c2[nH]c(C)c(C(C)=O)c2C)cc(OC)c1OC,inactive: 5.64%
10,Cc1ccc(NC(=O)COC(=O)/C=C/c2cccs2)cc1,inactive: -2.94%
11,CCOc1cc(/C=C(\C#N)C(=O)Nc2cccc(C(=O)O)c2)cc(Br)c1OC(=O)c1ccc(OC)cc1,inactive: 7.08%
12,COc1ccc(CC2(CO)CCN(CC3=Cc4cc(Cl)ccc4OC3)CC2)cc1,inactive: -1.15%
13,COc1ccccc1N(C(=O)c1ccco1)C(C(=O)NC1CCCCC1)c1cc(OC)c(OC)c(OC)c1 (stereo not drawn),inactive: 16.6%
14,CCC1CC(/C(C)=N/NC(N)=O)OC1=O (stereo not drawn),inactive: 13.2%
15,CCN(CC)S(=O)(=O)c1ccc(N2CCCCC2)c(NC(=O)/C(C#N)=C/c2ccc(OC)cc2)c1,inactive: 24.2%
16,COC(=O)c1sc(N)c(C(=O)OC)c1COC(=O)[C@@H](NS(=O)(=O)c1cccc(Cl)c1)C(C)C,inactive: 14.1%
17,O=C(COC(=O)C1=NN(c2ccccc2)C(=O)CC1)NCc1ccccc1Cl,inactive: 19.1%
18,CCOC(=O)c1cnn2cc(-c3[nH]ncc3[N+](=O)[O-])cnc12,inactive: 9.23%
19,Cc1ccc(S(=O)(=O)NNC(=O)C(=O)NNc2ccccn2)cc1,inactive: 19.2%
20,COc1ccc(NC(=O)CN2CCN(CC(=O)Nc3ccc(F)cc3F)CC2)cc1,inactive: -0.0599%
21,Cc1cc(NC(=O)c2cc(-c3ccc(Br)cc3)on2)no1,inactive: -0.868%
22,c1ccc2c(c1)CCN(C1=Nc3cccc4cccc1c34)C2,inactive: -11.8%
23,CCc1ccc(OC2(C)CCN(Cc3ccc(SC)cc3)C2)cc1 (stereo not drawn),inactive: 18.8%
24,CC1(C)CC(=O)/C(=C(\O)CCCN2C(=O)c3ccccc3C2=O)C(=NCC(=O)O)C1,inactive: 2.17%
25,Cc1cccc(Nc2nnc(SCc3cc(=O)n4cc(C)ccc4n3)s2)c1,inactive: -0.537%
26,COc1ccc(OCC(O)Cn2c(N3CCCCC3)nc3c2c(=O)n(C)c(=O)n3C)cc1 (stereo not drawn),inactive: 12%

row,Compound,growth rescue (activation)
1,CCOC(=O)C1CCCN(c2c(NCCc3ccc(C)cc3)c(=O)c2=O)C1 (stereo not drawn),inactive: 15.4%
2,Cc1ccc(O)c(C(=O)c2cnc(/N=C(\N)N(C)C)nc2)c1,inactive: 10.8%
3,COc1ccc(N(C(=O)c2cnccn2)C(C(=O)NC2CCCCC2)c2ccc(O)cc2)cc1 (stereo not drawn),inactive: 2.59%
4,O=C(CSc1cccc2cccnc12)N/N=C/c1ccncc1,inactive: -8.26%
5,CC(=O)Nc1cccc(-c2ccnc3c2CC(C)(C(=O)NC(C)C)O3)c1 (stereo not drawn),inactive: 7.25%
6,CCC(C(=O)OCC(=O)Nc1cc(C)ccc1OC)c1ccccc1 (stereo not drawn),inactive: 21.9%
7,O=C(NCCCO)c1cc2c([nH]c3ccccc32)c(-c2ccccc2)n1,inactive: 0.21%
8,COc1ccc(CN(C)C(=O)c2ccc(Oc3ccccc3)cc2)cc1F,inactive: 13.2%
9,CN(C)S(=O)(=O)c1cccc(NC(=O)COC(=O)c2cc3ccccc3oc2=O)c1,inactive: -27%
10,COc1cccc(-n2c(SCC(=O)N3c4ccccc4CC3C)nnc2-c2ccco2)c1 (stereo not drawn),inactive: 4.96%
11,O=C(CCc1c[nH]c2ccccc12)NCCOc1ccccc1,inactive: -0.599%
12,COc1ccccc1N1CCN(c2nccc(C)n2)CC1,inactive: 36.2%
13,CC(C)c1ccc(CC(=O)N2CCC2(C)C(=O)NS(=O)(=O)c2ccc(F)cc2F)cc1 (stereo not drawn),inactive: 13%
14,CN(C)/C=C(/C(=O)c1ccc(Cl)cc1)n1cncn1,inactive: -0.397%
15,CC(OC(=O)c1ccccc1Oc1ccccc1)C(=O)NC1CC1 (stereo not drawn),inactive: 22.1%
16,Cc1cccc(NS(=O)(=O)c2c(C)noc2C)c1,inactive: 12.8%
17,Cc1cc(C(=O)NCC(=O)OCC(=O)Nc2ccc(OC(F)F)cc2)ccc1[N+](=O)[O-],inactive: 17.3%
18,CN1CCN(NC(=O)c2cc(-c3ccc(Cl)s3)nc3ccccc23)CC1,inactive: -4.58%
19,CCOc1ccc2nc(SCC(=O)NCC3CCCO3)c(C#N)cc2c1 (stereo not drawn),inactive: 7.49%
20,Cc1ccc(NC(=O)Cc2nnc(SCC(=O)Nc3ccc(N4CCOCC4)cc3)n2C)cc1,inactive: -3.25%
21,COc1ccc(CCNC(=O)Cc2cc(OC)c(OC)cc2Br)cc1OC,inactive: -11.9%
22,O=C(Nc1ccc(S(=O)(=O)Nc2ncccn2)cc1)c1ccc(S(=O)(=O)N2CCCC2)cc1,inactive: -9.83%
23,Cn1c(=O)c2c(nc(Sc3ncnn3CC(=O)NC(C)(C)C)n2C)n(C)c1=O,inactive: -3.54%
24,CC(Sc1nc2scc(-c3ccccc3)c2c(=O)[nH]1)C(=O)NC(N)=O (stereo not drawn),inactive: -3.43%
25,O=C(CSc1nnc(-c2ccncc2)n1-c1ccccc1Cl)Nc1ccc(C(=O)O)cc1,inactive: 2.85%
